According to article PMC11057083:
Results are given in words; binding and its absence hold for the method and conditions named. Binding seen in cells or lysates may run through a third protein. Some results given as binding are weak or reduced against the parent protein; the word gives no strength. For some of these results: Where a sequence is shown, tags or fusion partners need not be part of it. Each block holds one binder with its values, some of them ahead of it.

Experiments:
[1] = molecular target: T1, HA-CDC6 (UniProt Q99741); assay: co-IP; HEK293 cells transfected with Flag-OTUD6A constructs and HA-CDC6 for 24 h; whole-cell lysates, IP with anti-Flag antibody (reverse IP in Supplementary Fig. 2e, f), Western blot; in one panel cells treated with HU (2.5 mM) or DMSO for 24 h
T1 sequence: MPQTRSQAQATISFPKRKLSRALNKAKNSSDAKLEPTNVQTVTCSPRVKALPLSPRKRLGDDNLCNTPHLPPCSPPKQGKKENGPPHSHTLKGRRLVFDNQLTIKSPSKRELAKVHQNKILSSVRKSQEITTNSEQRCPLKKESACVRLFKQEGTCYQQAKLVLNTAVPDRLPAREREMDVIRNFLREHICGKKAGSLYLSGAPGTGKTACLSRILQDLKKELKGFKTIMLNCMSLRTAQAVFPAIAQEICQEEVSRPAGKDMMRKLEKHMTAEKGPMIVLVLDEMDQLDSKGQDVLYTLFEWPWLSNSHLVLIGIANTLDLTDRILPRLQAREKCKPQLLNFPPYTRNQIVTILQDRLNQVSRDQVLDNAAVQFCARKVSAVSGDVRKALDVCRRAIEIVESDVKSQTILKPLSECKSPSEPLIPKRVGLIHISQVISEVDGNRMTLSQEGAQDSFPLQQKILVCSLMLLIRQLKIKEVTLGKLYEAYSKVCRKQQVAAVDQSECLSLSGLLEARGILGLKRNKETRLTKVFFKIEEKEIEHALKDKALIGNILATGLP

[2] = molecular target: T2, OTU domain-containing 6A (OTUD6A), endogenous in HEK293 cells (human (endogenous in HEK293)) (UniProt Q7L8S5); assay: co-IP; endogenous proteins; HEK293 whole-cell lysates, IP with control IgG, anti-OTUD6A or anti-CDC6 antibody, Western blot
T2 sequence: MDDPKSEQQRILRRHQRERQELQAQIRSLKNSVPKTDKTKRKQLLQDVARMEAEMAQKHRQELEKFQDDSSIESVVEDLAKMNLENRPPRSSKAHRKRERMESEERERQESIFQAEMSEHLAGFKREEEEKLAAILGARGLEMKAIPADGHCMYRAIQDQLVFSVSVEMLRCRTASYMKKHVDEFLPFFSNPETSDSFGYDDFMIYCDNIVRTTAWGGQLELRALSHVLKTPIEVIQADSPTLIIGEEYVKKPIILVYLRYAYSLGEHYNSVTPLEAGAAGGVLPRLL

[3] = molecular target: T3, GST-tagged OTUD6A-N-terminal (1-145 aa) (UniProt Q7L8S5); assay: pull-down; GST pull-down with GST-tagged OTUD6A constructs; Coomassie brilliant blue staining of the GST proteins; source of CDC6 not shown
T3 sequence: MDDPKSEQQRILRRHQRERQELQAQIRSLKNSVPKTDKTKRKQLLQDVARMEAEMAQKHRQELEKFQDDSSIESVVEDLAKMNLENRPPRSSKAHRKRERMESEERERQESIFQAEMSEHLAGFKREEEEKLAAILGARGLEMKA

[4] = molecular target: T4, GST-tagged full-length OTUD6A (UniProt Q7L8S5); assay: as above
T4 sequence: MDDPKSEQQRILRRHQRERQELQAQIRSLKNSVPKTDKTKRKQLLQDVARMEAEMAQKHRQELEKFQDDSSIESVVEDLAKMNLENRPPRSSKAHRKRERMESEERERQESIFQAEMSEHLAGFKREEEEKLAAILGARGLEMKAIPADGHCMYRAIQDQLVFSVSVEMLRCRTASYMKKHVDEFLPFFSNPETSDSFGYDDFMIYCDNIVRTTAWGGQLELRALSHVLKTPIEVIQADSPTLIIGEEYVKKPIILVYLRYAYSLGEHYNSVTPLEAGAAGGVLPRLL

[5] = molecular target: T5, Flag-tagged OTUD6A-N-terminal (1-145 aa) (UniProt Q7L8S5); assay: co-IP; HEK293 cells transfected with Flag-OTUD6A constructs and HA-CDC6 for 24 h; whole-cell lysates, IP with anti-Flag antibody (reverse IP in Supplementary Fig. 2e, f), Western blot; in one panel cells treated with HU (2.5 mM) or DMSO for 24 h
T5 sequence: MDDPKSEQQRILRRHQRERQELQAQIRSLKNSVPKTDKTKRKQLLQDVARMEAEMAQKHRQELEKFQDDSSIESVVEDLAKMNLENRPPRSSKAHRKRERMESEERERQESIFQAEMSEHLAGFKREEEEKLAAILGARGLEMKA

[6] = molecular target: T6, Flag-tagged OTUD6A-C-terminal (129-288 aa) (UniProt Q7L8S5); assay: as above
T6 sequence: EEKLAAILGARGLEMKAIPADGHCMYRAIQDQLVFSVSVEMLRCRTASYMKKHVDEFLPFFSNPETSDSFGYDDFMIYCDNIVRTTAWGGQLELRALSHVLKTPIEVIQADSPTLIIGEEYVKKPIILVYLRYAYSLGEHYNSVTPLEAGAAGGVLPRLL

[7] = molecular target: T7, Flag-OTUD6A (human) (UniProt Q7L8S5); assay: as above
T7 sequence: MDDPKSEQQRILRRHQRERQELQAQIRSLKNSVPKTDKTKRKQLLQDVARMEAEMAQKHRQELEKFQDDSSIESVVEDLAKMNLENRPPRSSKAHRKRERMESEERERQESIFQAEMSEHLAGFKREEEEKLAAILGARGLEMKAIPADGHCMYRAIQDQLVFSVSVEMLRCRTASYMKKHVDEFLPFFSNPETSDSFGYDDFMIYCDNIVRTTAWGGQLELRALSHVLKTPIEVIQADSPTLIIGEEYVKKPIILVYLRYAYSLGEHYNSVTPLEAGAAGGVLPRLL

B1: Flag-OTUD6A (enzyme, UniProt Q7L8S5 1-288)
chain: MDDPKSEQQRILRRHQRERQELQAQIRSLKNSVPKTDKTKRKQLLQDVARMEAEMAQKHRQELEKFQDDSSIESVVEDLAKMNLENRPPRSSKAHRKRERMESEERERQESIFQAEMSEHLAGFKREEEEKLAAILGARGLEMKAIPADGHCMYRAIQDQLVFSVSVEMLRCRTASYMKKHVDEFLPFFSNPETSDSFGYDDFMIYCDNIVRTTAWGGQLELRALSHVLKTPIEVIQADSPTLIIGEEYVKKPIILVYLRYAYSLGEHYNSVTPLEAGAAGGVLPRLL
binding [1]: binds

B3: CDC6 of the GST pull-down assay (protein, UniProt Q99741 1-560)
chain: MPQTRSQAQATISFPKRKLSRALNKAKNSSDAKLEPTNVQTVTCSPRVKALPLSPRKRLGDDNLCNTPHLPPCSPPKQGKKENGPPHSHTLKGRRLVFDNQLTIKSPSKRELAKVHQNKILSSVRKSQEITTNSEQRCPLKKESACVRLFKQEGTCYQQAKLVLNTAVPDRLPAREREMDVIRNFLREHICGKKAGSLYLSGAPGTGKTACLSRILQDLKKELKGFKTIMLNCMSLRTAQAVFPAIAQEICQEEVSRPAGKDMMRKLEKHMTAEKGPMIVLVLDEMDQLDSKGQDVLYTLFEWPWLSNSHLVLIGIANTLDLTDRILPRLQAREKCKPQLLNFPPYTRNQIVTILQDRLNQVSRDQVLDNAAVQFCARKVSAVSGDVRKALDVCRRAIEIVESDVKSQTILKPLSECKSPSEPLIPKRVGLIHISQVISEVDGNRMTLSQEGAQDSFPLQQKILVCSLMLLIRQLKIKEVTLGKLYEAYSKVCRKQQVAAVDQSECLSLSGLLEARGILGLKRNKETRLTKVFFKIEEKEIEHALKDKALIGNILATGLP
binding [3]: binds
binding [4]: binds

Second part, the binder after the results:

binding [2]: binds
B2: cell division cycle 6 (CDC6), endogenous in HEK293 cells (protein, UniProt Q99741 1-560)
chain: MPQTRSQAQATISFPKRKLSRALNKAKNSSDAKLEPTNVQTVTCSPRVKALPLSPRKRLGDDNLCNTPHLPPCSPPKQGKKENGPPHSHTLKGRRLVFDNQLTIKSPSKRELAKVHQNKILSSVRKSQEITTNSEQRCPLKKESACVRLFKQEGTCYQQAKLVLNTAVPDRLPAREREMDVIRNFLREHICGKKAGSLYLSGAPGTGKTACLSRILQDLKKELKGFKTIMLNCMSLRTAQAVFPAIAQEICQEEVSRPAGKDMMRKLEKHMTAEKGPMIVLVLDEMDQLDSKGQDVLYTLFEWPWLSNSHLVLIGIANTLDLTDRILPRLQAREKCKPQLLNFPPYTRNQIVTILQDRLNQVSRDQVLDNAAVQFCARKVSAVSGDVRKALDVCRRAIEIVESDVKSQTILKPLSECKSPSEPLIPKRVGLIHISQVISEVDGNRMTLSQEGAQDSFPLQQKILVCSLMLLIRQLKIKEVTLGKLYEAYSKVCRKQQVAAVDQSECLSLSGLLEARGILGLKRNKETRLTKVFFKIEEKEIEHALKDKALIGNILATGLP

binding [5]: binds
binding [6]: no binding
binding [7]: binds
B4: HA-CDC6 (protein, UniProt Q99741 1-560)
chain: MPQTRSQAQATISFPKRKLSRALNKAKNSSDAKLEPTNVQTVTCSPRVKALPLSPRKRLGDDNLCNTPHLPPCSPPKQGKKENGPPHSHTLKGRRLVFDNQLTIKSPSKRELAKVHQNKILSSVRKSQEITTNSEQRCPLKKESACVRLFKQEGTCYQQAKLVLNTAVPDRLPAREREMDVIRNFLREHICGKKAGSLYLSGAPGTGKTACLSRILQDLKKELKGFKTIMLNCMSLRTAQAVFPAIAQEICQEEVSRPAGKDMMRKLEKHMTAEKGPMIVLVLDEMDQLDSKGQDVLYTLFEWPWLSNSHLVLIGIANTLDLTDRILPRLQAREKCKPQLLNFPPYTRNQIVTILQDRLNQVSRDQVLDNAAVQFCARKVSAVSGDVRKALDVCRRAIEIVESDVKSQTILKPLSECKSPSEPLIPKRVGLIHISQVISEVDGNRMTLSQEGAQDSFPLQQKILVCSLMLLIRQLKIKEVTLGKLYEAYSKVCRKQQVAAVDQSECLSLSGLLEARGILGLKRNKETRLTKVFFKIEEKEIEHALKDKALIGNILATGLP
